The supplement of paper PMC4604168 (melanoma cell lines)
The other results are listed elsewhere or left out. Repeats are few or missing, and single values can be far off.

tested on: SkMel28; assay: cell count relative to DMSO control; melanoma cells; higher = more viable cells; conditions: library dose: low library concentration; 72 h
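Further: cell number obtained by counting DAPI-stained nuclei in high-throughput microscope images with image analysis software, screen run in 1,536-well plates.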

Row | SMILES | cell count [%]
1 | Cc1cn(-c2cc(NC(=O)c3ccc(C)c(Nc4nccc(-c5cccnc5)n4)c3)cc(C(F)(F)F)c2)cn1 [nilotinib] + NCC(=O)Nc1ccc(-n2nc(C(F)(F)F)cc2-c2ccc3c(ccc4ccccc43)c2)cc1 [OSU03012] (first compound 0.2 µM, partner dose 1 µM) | 89.3
2 | Cc1cn(-c2cc(NC(=O)c3ccc(C)c(Nc4nccc(-c5cccnc5)n4)c3)cc(C(F)(F)F)c2)cn1 [nilotinib] + CO[C@@H]1[C@H](N(C)C(=O)c2ccccc2)C[C@H]2O[C@]1(C)n1c3ccccc3c3c4c(c5c6ccccc6n2c5c31)C(=O)NC4 [Midostaurin] (first compound 0.2 µM, partner dose 0.08 µM) | 101
3 | Cc1cc(Nc2cc(N3CCN(C)CC3)nc(/C=C/c3ccccc3)n2)n[nH]1 + COC(=O)c1sccc1S(=O)(=O)Nc1ccc(Nc2ccccc2)cc1OC [GSK0660] (first compound 0.04 µM, partner dose 1 µM) | 90.1
4 | COc1ccc(C2=N[C@@H](c3ccc(Cl)cc3)[C@@H](c3ccc(Cl)cc3)N2C(=O)N2CCNC(=O)C2)c(OC(C)C)c1 [Nutlin-3] + CC(C)CCN1c2nc(Nc3cc(F)c(O)c(F)c3)ncc2N(C)C(=O)C1C [BID1870] (first compound 0.1 µM, partner dose 0.2 µM) | 89
5 | COc1ccc(C2=N[C@@H](c3ccc(Cl)cc3)[C@@H](c3ccc(Cl)cc3)N2C(=O)N2CCNC(=O)C2)c(OC(C)C)c1 [Nutlin-3] + COc1ccc2c(c1)CCC1C2CCC2(C)C(NCCCCCCN3C(=O)C=CC3=O)CCC12 [U73122] (first compound 0.1 µM, partner dose 0.4 µM) | 94.5
6 | Cc1cc(Nc2cc(N3CCN(C)CC3)nc(/C=C/c3ccccc3)n2)n[nH]1 + Oc1nc(-c2ccc(C(F)(F)F)cc2)nc2c1CSCC2 [XAV939] (first compound 0.04 µM, partner dose 2 µM) | 83.6
7 | COc1ccc(C2=N[C@@H](c3ccc(Cl)cc3)[C@@H](c3ccc(Cl)cc3)N2C(=O)N2CCNC(=O)C2)c(OC(C)C)c1 [Nutlin-3] + CCc1ccc(CCOc2ccc(CC3SC(=O)NC3=O)cc2)nc1 [pioglitazone] (first compound 0.1 µM, partner dose 2 µM) | 84.9
8 | COc1ccc(C2=N[C@@H](c3ccc(Cl)cc3)[C@@H](c3ccc(Cl)cc3)N2C(=O)N2CCNC(=O)C2)c(OC(C)C)c1 [Nutlin-3] + O=C(CCCCCCC(=O)Nc1ccccc1)NO [vorinostat] (first compound 0.1 µM, partner dose 0.08 µM) | 95.6
9 | Cn1c(=O)n(-c2ccc(C(C)(C)C#N)cc2)c2c3cc(-c4cnc5ccccc5c4)ccc3ncc21 + Cn1cncc1[C@@](N)(c1ccc(Cl)cc1)c1ccc2c(c1)c(-c1cccc(Cl)c1)cc(=O)n2C [tipifarnib] (first compound 0.004 µM, partner dose 0.01 µM) | 53.5

tested on: SkMel2; assay: as above; conditions: library dose: low library concentration; 72 h

Row | SMILES | cell count [%]
10 | COc1ccc(C2=N[C@@H](c3ccc(Cl)cc3)[C@@H](c3ccc(Cl)cc3)N2C(=O)N2CCNC(=O)C2)c(OC(C)C)c1 [Nutlin-3] + c1cc(-c2cnn3cc(-c4ccc(OCCN5CCCCC5)cc4)cnc23)ccn1 [Dorsomorphin] (first compound 0.1 µM, partner dose 0.4 µM) | 101
11 | Cn1c(=O)n(-c2ccc(C(C)(C)C#N)cc2)c2c3cc(-c4cnc5ccccc5c4)ccc3ncc21 + COc1cc(N2CCC(N3CCN(C)CC3)CC2)ccc1Nc1ncc(Cl)c(Nc2ccccc2S(=O)(=O)C(C)C)n1 [NVP-TAE684] (first compound 0.004 µM, partner dose 0.08 µM) | 82.2
12 | COc1ccc(C2=N[C@@H](c3ccc(Cl)cc3)[C@@H](c3ccc(Cl)cc3)N2C(=O)N2CCNC(=O)C2)c(OC(C)C)c1 [Nutlin-3] + COc1cc2c(Oc3ccc4[nH]c(C)cc4c3F)ncnc2cc1OCCCN1CCCC1 [cediranib] (first compound 0.1 µM, partner dose 0.4 µM) | 101
13 | CC(C)C[C@H](NC(=O)[C@H](Cc1ccccc1)NC(=O)c1cnccn1)B(O)O [Bortezomib] + NC(=O)Nc1cc(-c2cccc(F)c2)sc1C(=O)N[C@H]1CCCNC1 [AZD7762] (first compound 0.001 µM, partner dose 0.02 µM) | 103
14 | CC(C)C[C@H](NC(=O)[C@H](Cc1ccccc1)NC(=O)c1cnccn1)B(O)O [Bortezomib] + O=C(O)c1ccc(-c2c[nH]c3ncc(-c4ccccc4)cc23)cc1C1CCCC1 [GSK650394] (first compound 0.001 µM, partner dose 0.16 µM) | 91.4
15 | COc1ccc(C2=N[C@@H](c3ccc(Cl)cc3)[C@@H](c3ccc(Cl)cc3)N2C(=O)N2CCNC(=O)C2)c(OC(C)C)c1 [Nutlin-3] + O=C1NC(=O)/C(=C/c2ccc(-c3ccc(F)cc3O)o2)S1 [AS252424] (first compound 0.1 µM, partner dose 1 µM) | 80.9
16 | Cn1c(=O)n(-c2ccc(C(C)(C)C#N)cc2)c2c3cc(-c4cnc5ccccc5c4)ccc3ncc21 + NCC(=O)Nc1ccc(-n2nc(C(F)(F)F)cc2-c2ccc3c(ccc4ccccc43)c2)cc1 [OSU03012] (first compound 0.004 µM, partner dose 1 µM) | 87.9
17 | CC(C)C[C@H](NC(=O)[C@H](Cc1ccccc1)NC(=O)c1cnccn1)B(O)O [Bortezomib] + O=C(Nc1ccccc1)c1cc([N+](=O)[O-])ccc1Cl [GW9662] (first compound 0.001 µM, partner dose 2 µM) | 100
18 | COc1ccc(C2=N[C@@H](c3ccc(Cl)cc3)[C@@H](c3ccc(Cl)cc3)N2C(=O)N2CCNC(=O)C2)c(OC(C)C)c1 [Nutlin-3] + Cn1cc(/C=C2\C(=O)Nc3cccnc32)c2ccccc21 [GW441756] (first compound 0.1 µM, partner dose 0.4 µM) | 110
19 | Cn1c(=O)n(-c2ccc(C(C)(C)C#N)cc2)c2c3cc(-c4cnc5ccccc5c4)ccc3ncc21 + OCCn1cc(-c2cnc3nnn(Cc4ccc5ncccc5c4)c3n2)cn1 [PF04217903] (first compound 0.004 µM, partner dose 1 µM) | 97.2
20 | Cc1cn(-c2cc(NC(=O)c3ccc(C)c(Nc4nccc(-c5cccnc5)n4)c3)cc(C(F)(F)F)c2)cn1 [nilotinib] + Oc1nc(-c2ccc(C(F)(F)F)cc2)nc2c1CSCC2 [XAV939] (first compound 0.2 µM, partner dose 2 µM) | 79.3
21 | COc1ccc(C2=N[C@@H](c3ccc(Cl)cc3)[C@@H](c3ccc(Cl)cc3)N2C(=O)N2CCNC(=O)C2)c(OC(C)C)c1 [Nutlin-3] + CO[C@@H]1[C@H](N(C)C(=O)c2ccccc2)C[C@H]2O[C@]1(C)n1c3ccccc3c3c4c(c5c6ccccc6n2c5c31)C(=O)NC4 [Midostaurin] (first compound 0.1 µM, partner dose 0.08 µM) | 87
22 | COc1ccc(C2=N[C@@H](c3ccc(Cl)cc3)[C@@H](c3ccc(Cl)cc3)N2C(=O)N2CCNC(=O)C2)c(OC(C)C)c1 [Nutlin-3] + C[C@@H]1CCN(C(=O)CC#N)C[C@@H]1N(C)c1ncnc2[nH]ccc12 [CP690550] (first compound 0.1 µM, partner dose 1 µM) | 99.3
23 | Cc1cn(-c2cc(NC(=O)c3ccc(C)c(Nc4nccc(-c5cccnc5)n4)c3)cc(C(F)(F)F)c2)cn1 [nilotinib] + Cn1cncc1[C@@](N)(c1ccc(Cl)cc1)c1ccc2c(c1)c(-c1cccc(Cl)c1)cc(=O)n2C [tipifarnib] (first compound 0.2 µM, partner dose 0.01 µM) | 75.6
24 | CC(C)C[C@H](NC(=O)[C@H](Cc1ccccc1)NC(=O)c1cnccn1)B(O)O [Bortezomib] + CC(C)CCN1c2nc(Nc3cc(F)c(O)c(F)c3)ncc2N(C)C(=O)C1C [BID1870] (first compound 0.001 µM, partner dose 0.2 µM) | 99.2
25 | Cc1cn(-c2cc(NC(=O)c3ccc(C)c(Nc4nccc(-c5cccnc5)n4)c3)cc(C(F)(F)F)c2)cn1 [nilotinib] + O=C(CCCCCCC(=O)Nc1ccccc1)NO [vorinostat] (first compound 0.2 µM, partner dose 0.08 µM) | 92.9
26 | Cn1c(=O)n(-c2ccc(C(C)(C)C#N)cc2)c2c3cc(-c4cnc5ccccc5c4)ccc3ncc21 + O=C1NC(=O)/C(=C/c2ccc(-c3ccc(F)cc3O)o2)S1 [AS252424] (first compound 0.004 µM, partner dose 1 µM) | 87
27 | CC(C)C[C@H](NC(=O)[C@H](Cc1ccccc1)NC(=O)c1cnccn1)B(O)O [Bortezomib] + COc1ccc(-c2ccc3c(N4CCOCC4)nc(N4C[C@@H](C)O[C@@H](C)C4)nc3n2)cc1CO [KU0063794] (first compound 0.001 µM, partner dose 0.02 µM) | 97.8
28 | Cc1cc(Nc2cc(N3CCN(C)CC3)nc(/C=C/c3ccccc3)n2)n[nH]1 + CC(C)(C)c1cnc(CSc2cnc(NC(=O)C3CCNCC3)s2)o1 [SNS-032] (first compound 0.04 µM, partner dose 0.01 µM) | 102
29 | Cc1cc(Nc2cc(N3CCN(C)CC3)nc(/C=C/c3ccccc3)n2)n[nH]1 + O=C(O)c1ccc(-c2c[nH]c3ncc(-c4ccccc4)cc23)cc1C1CCCC1 [GSK650394] (first compound 0.04 µM, partner dose 0.16 µM) | 90.9
